{"source": "PubChem BioAssay AID2675", "about": "(National Center for Advancing Translational Sciences (NCATS), 2010)", "note": "Among all 280,000 compounds or so, about 100 (0.036%) were called active. The inconclusive results got no clear call from the source; some entries with a clear call stand among them for comparison. The call rests on the fitted dose curve; in most records, active means well fitted inhibition curve with a large enough effect in the signal ratio, with a control signal flat (not every such curve was filed as active); inconclusive means small, poorly fitted or top-dose-only effect, or effect the other way, or a change in a side signal; inactive means no such curve, though single readings can be large or run the other way; the % refers to the signal ratio. Where the call is inconclusive, the potency comes from a doubtful curve fit. A note “side channel” means that the fit belongs to a control or component signal, not to the main read-out. On the % scale 0 is the no-effect control and ±100 the full control effect; potency means the concentration at half of the fitted maximal effect; tags describe the fitted curve by direction and shape or compound fluorescence and quenching.", "data": [{"molecular_target": "Muscleblind-like protein 1 (Homo sapiens) (UniProt Q9NR56)", "sequence (Q9NR56 whole entry, looked up)": "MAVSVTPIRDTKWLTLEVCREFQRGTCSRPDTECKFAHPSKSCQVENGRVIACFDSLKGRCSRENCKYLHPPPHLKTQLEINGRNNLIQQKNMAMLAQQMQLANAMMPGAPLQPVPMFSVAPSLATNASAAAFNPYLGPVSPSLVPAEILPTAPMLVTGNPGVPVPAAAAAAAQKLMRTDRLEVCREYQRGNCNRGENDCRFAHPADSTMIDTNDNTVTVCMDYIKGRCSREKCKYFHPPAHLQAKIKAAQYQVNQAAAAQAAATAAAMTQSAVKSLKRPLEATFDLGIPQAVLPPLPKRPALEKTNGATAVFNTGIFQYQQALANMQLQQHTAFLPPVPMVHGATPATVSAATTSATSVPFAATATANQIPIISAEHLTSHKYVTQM", "test": "qHTS Assay for Inhibitors of MBNL1-poly(CUG) RNA binding", "settings": "TR-FRET MBNL1-His/biotin-(CUG)12 binding, 665/545 ratio; activity change, negative = inhibition: at 57.5 µM (top of the series)", "in_short": "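TR-FRET readout: Ex 340 nm, 665/545 nm emission ratio, normalized to buffer-only (basal) and MBNL1-(CUG)12 controls. Complex of MBNL1-His with Biotin-(CUG)12, compounds 92 nM–58 uM, incubated 60 min at room temperature.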", "values": [{"smiles": "CN1CCN(CCC(=O)N/N=C/c2cc3c(cc2[N+](=O)[O-])OCO3)CC1", "Potency": "inconclusive: 20 µM [quencher, side channel, partial curve]"}, {"smiles": "Cc1cc2cc(C(c3nnnn3Cc3ccco3)N3CCc4ccccc43)c(=O)[nH]c2cc1C", "note": "(centres undefined)", "activity change, negative = inhibition": "inactive: 11.6%"}, {"smiles": "Cc1ccc(-c2cc(C(F)(F)F)c(C#N)c(=O)[nH]2)cc1", "Potency": "inconclusive: 3.16 µM [quencher, side channel, single point]"}, {"smiles": "Cc1c(N=C/C=C2\\N(C)c3ccccc3C2(C)C)c(=O)n(-c2ccccc2)n1C", "Potency": "inconclusive: 17.8 µM [quencher, side channel, single point]"}, {"smiles": "CCOC(=O)N1CCN(c2cc(N3CCN(CC)CC3)c(F)cc2[N+](=O)[O-])CC1C", "note": "(centres undefined)", "Potency": "inconclusive: 20 µM [quencher, side channel, partial curve]"}, {"smiles": "O=c1[nH]nc(Cc2ccc(-c3ccccc3Cl)o2)c2ccccc12", "Potency": "inconclusive: 28.2 µM [fluorescent, side channel, partial curve, poor fit]"}, {"smiles": "COc1ccccc1C(=O)c1cc2ccc(O)cc2oc1=O", "Potency": "inconclusive: 7.94 µM [quencher, side channel, partial curve]"}, {"smiles": "CCn1cc(/C=C(\\NC(=O)c2ccccc2OC)C(=O)NCCCn2ccnc2)c2ccccc21", "Potency": "inconclusive: 25.1 µM [quencher, side channel, single point]"}, {"smiles": "CC(C)CC[n+]1ccccc1/C=C/c1ccc(N(C)C)cc1", "Potency": "inconclusive: 11.2 µM [quencher, side channel, partial curve]"}, {"smiles": "N#Cc1cc([N+](=O)[O-])ccc1Oc1ccc(-c2nnco2)cc1", "Potency": "inconclusive: 3.16 µM [quencher, side channel, full curve]"}, {"smiles": "O=C(O)c1cc(NC(=O)c2cccc(F)c2)cc(NC(=O)c2cccc(F)c2)c1", "activity change, negative = inhibition": "inactive: -8.82%"}, {"smiles": "S=C(c1nc2ccccc2[nH]1)N1CCOCC1", "activity change, negative = inhibition": "inactive: 5.67%"}, {"smiles": "Cc1ccc(OCC(=O)c2cc(C)n(-c3ccccc3)c2C)c([N+](=O)[O-])n1", "Potency": "inconclusive: 22.4 µM [quencher, side channel, partial curve]"}, {"smiles": "NC(=O)c1nsc(C(=O)N(Cc2cccnc2)C(C(=O)NCc2ccc(F)cc2)c2ccc(F)cc2)c1N", "note": "(centres undefined)", "Potency": "inconclusive: 12.6 µM [quencher, side channel, partial curve]"}, {"smiles": "CC(C)C(=O)Nc1cccc(NC(=S)NC(=O)c2ccc([N+](=O)[O-])cc2)c1", "Potency": "inconclusive: 3.98 µM [quencher, side channel, full curve]"}, {"smiles": "CN(C)c1ccc(/C=C(/NC(=O)c2ccccc2)C(=O)N/N=C/c2ccc([N+](=O)[O-])c(O)c2)cc1", "Potency": "inconclusive: 22.4 µM [quencher, partial curve]"}, {"smiles": "Cc1cc2oc(=O)cc(CN3CCCc4ccccc43)c2cc1C", "Potency": "inconclusive: 25.1 µM [quencher, side channel, single point]"}, {"smiles": "Cc1c(NC(=O)COC(=O)c2ccccc2Cl)c(=O)n(-c2ccccc2)n1C", "activity change, negative = inhibition": "inactive: -2.74%"}, {"smiles": "O=C(O)CCC(=O)N1CCc2cc(S(=O)(=O)NCc3ccc(Cl)cc3)ccc21", "activity change, negative = inhibition": "inactive: 0.679%"}, {"smiles": "C=CCSc1nnc2c(n1)OC(c1ccccn1)N(C(C)=O)c1ccccc1-2", "note": "(centres undefined)", "Potency": "inconclusive: 14.1 µM [quencher, side channel, partial curve]"}, {"smiles": "COc1cccc(NC(=O)CCN2C(=O)c3cccc([N+](=O)[O-])c3C2=O)c1", "Potency": "inconclusive: 14.1 µM [quencher, side channel, partial curve]"}, {"smiles": "Cn1cnc([N+](=O)[O-])c1NCc1ccccc1", "Potency": "inconclusive: 25.1 µM [quencher, side channel, partial curve]"}, {"smiles": "Cc1ccc(S(=O)(=O)Oc2ccccc2/C=N/N=C(N)N)cc1", "Potency": "active: 17.8 µM"}, {"smiles": "COCCN(CC(=O)NCc1ccc2c(c1)OCO2)C(=O)CCC(=O)Nc1nccs1", "activity change, negative = inhibition": "inactive: -7.28%"}, {"smiles": "CC1C/C(=C/c2ccco2)C(=O)/C(=C/c2ccco2)C1", "note": "(centres undefined)", "activity change, negative = inhibition": "inactive: 9.97%"}, {"smiles": "Cn1c(S(=O)(=O)c2ccc([N+](=O)[O-])cc2)nc(Br)c1Br", "Potency": "inconclusive: 3.98 µM [quencher, side channel, full curve]"}, {"smiles": "O=C(c1ccc(NS(=O)(=O)c2cccs2)cc1)N1CCCCC1", "Potency": "inconclusive: 3.98 µM [quencher, side channel, single point]"}, {"smiles": "NS(=O)(=O)c1ccc(CNS(=O)(=O)c2cccc3nonc23)cc1", "Potency": "inconclusive: 14.1 µM [quencher, side channel, partial curve]"}, {"smiles": "O=C(c1ccc(Cl)cc1[N+](=O)[O-])N1CCOCC1", "Potency": "inconclusive: 28.2 µM [quencher, side channel, partial curve]"}, {"smiles": "Cc1ccc(-c2cn3nc(C)c(C)nc3n2)cc1", "Potency": "inconclusive: 28.2 µM [quencher, side channel, partial curve]"}, {"smiles": "COc1ccc([N+](=O)[O-])cc1NC(=O)C1(c2ccccc2)CCOCC1", "Potency": "inconclusive: 31.6 µM [quencher, side channel, single point]"}, {"smiles": "O=C1c2ccc(Oc3ccc([N+](=O)[O-])cc3)cc2C(=O)N1CCCO", "Potency": "inconclusive: 15.8 µM [quencher, side channel, partial curve]"}, {"smiles": "O=C(O)c1ccc(COc2ccccc2/C=C2\\NC(=O)N(Cc3ccccc3)C2=O)cc1", "Potency": "inconclusive: 39.8 µM [quencher, side channel, single point]"}, {"smiles": "O=c1c2ccc(Cl)cc2[nH]c(=S)n1CCC1=CCCCC1", "activity change, negative = inhibition": "inactive: -2.71%"}, {"smiles": "COc1ccccc1COC(=O)N/C=C/c1ccco1", "activity change, negative = inhibition": "inactive: -3.42%"}, {"smiles": "CC(Oc1ccccc1)C(=O)NC1CCCCCCC1", "note": "(centres undefined)", "activity change, negative = inhibition": "inactive: -7.43%"}, {"smiles": "CCc1ccc[n+](-c2[nH]c(=O)sc2/C=N/N=C(\\[O-])c2cccnc2)c1", "Potency": "inconclusive: 11.2 µM [quencher, side channel, partial curve]"}, {"smiles": "CC1CCN(c2ccc([N+](=O)[O-])cc2C(=O)O)CC1", "Potency": "inconclusive: 15.8 µM [quencher, side channel, partial curve]"}, {"smiles": "N#Cc1c(CSCC(=O)O)cc(=O)n2c1[nH]c1ccccc12", "Potency": "inconclusive: 126 µM [inhibitor, partial curve]"}]}]}
